Laboratory results as given in the supplement of paper PMC4967469.
A lower IC50 marks a more sensitive line; a fit beyond the top or the lowest dose is shown as a bound at that dose. For AUC the same curve is integrated over the 256-fold range of doses and scaled to a fraction; values near 1 show little effect. For part of these data: The top dose, if marked as inferred, is not printed in the source and was worked back from the curve model.

How the values were obtained:
Experiment in all cases: Viability of human cancer cell lines after 72 h of drug (GDSC screen)
Paclitaxel = compound: CC(=O)O[C@H]1C(=O)[C@@]2(C)[C@H]([C@H](OC(=O)c3ccccc3)[C@]3(O)C[C@H](OC(=O)[C@H](O)[C@@H](NC(=O)c4ccccc4)c4ccccc4)C(C)=C1C3(C)C)[C@]1(OC(C)=O)CO[C@@H]1C[C@@H]2O [Paclitaxel]; conditions: top dose 0.1024 µM
Description: (§1)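 Human cancer cell lines in 384-well plates, medium with 10% serum, drug for 72 h over a 256-fold dose range (nine 2-fold or five 4-fold steps up to the top dose). Adherent lines were fixed and stained with the nucleic acid dye Syto60, suspension lines read with resazurin; signal relative to control wells, capped at 0 and 100%. One two-parameter sigmoid per drug and line, fitted in a mixed model over all curves with the slope shared within a line.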

Bortezomib = compound: CC(C)C[C@H](NC(=O)[C@H](Cc1ccccc1)NC(=O)c1cnccn1)B(O)O [Bortezomib]; conditions: top dose 0.02 µM
Description: as §1

Obatoclax mesylate = compound: COC1=CC(c2cc3ccccc3[nH]2)=N/C1=C\c1[nH]c(C)cc1C [Obatoclax mesylate]; conditions: top dose 16 µM
Description: as §1

CP724714 = compound: COCC(=O)NC/C=C/c1ccc2ncnc(Nc3ccc(Oc4ccc(C)nc4)c(C)c3)c2c1 [CP724714]; conditions: top dose 10.24 µM; top dose inferred
Description: as §1

STF-62247 = compound: Cc1cccc(Nc2nc(-c3ccncc3)cs2)c1 [STF-62247]; conditions: top dose 10.24 µM; top dose inferred
Description: as §1

CX-5461 = compound: Cc1cnc(CNC(=O)c2c(=O)c3ccc(N4CCCN(C)CC4)nc3n3c2sc2ccccc23)cn1 [CX-5461]; conditions: top dose 10.24 µM; top dose inferred
Description: as §1

| Cell Line | AUC (Paclitaxel) | IC50 (Paclitaxel) [nM] | AUC (Bortezomib) | IC50 (Bortezomib) [nM] | AUC (Obatoclax mesylate) | IC50 (Obatoclax mesylate) [nM] | AUC (CP724714) | IC50 (CP724714) [µM] | AUC (STF-62247) | IC50 (STF-62247) [µM] | AUC (CX-5461) | IC50 (CX-5461) [nM] |
| --- | --- | --- | --- | --- | --- | --- | --- | --- | --- | --- | --- | --- |
| NCI-H2135 (non-small cell lung carcinoma, adherent) | 0.887 | > 102 | 0.699 | 4.46 | 0.594 | 1790 | 0.989 | > 10.2 | 0.987 | > 10.2 | 0.58 | 1050 |
| NCI-H2141 (small cell lung carcinoma, suspension) | 0.824 | 58.7 | 0.719 | 5.11 | 0.479 | 880 | 0.991 | > 10.2 | 0.984 | > 10.2 | 0.947 | > 10200 |
| NCI-H2171 (small cell lung carcinoma, suspension) | 0.966 | > 102 | 0.946 | > 20 | 0.45 | 745 | 0.979 | > 10.2 | 0.988 | > 10.2 | 0.98 | > 10200 |
| NCI-H2196 (small cell lung carcinoma, adherent) | 0.949 | > 102 | 0.725 | 5.65 | 0.677 | 3220 | 0.97 | > 10.2 | 0.982 | > 10.2 | 0.9 | > 10200 |
| NCI-SNU-1 (stomach, suspension) | 0.918 | > 102 | 0.746 | 6.52 | 0.135 | 67 | 0.926 | > 10.2 | 0.98 | > 10.2 | 0.69 | 2230 |
| NCI-SNU-5 (stomach, suspension) | 0.667 | 18.8 | 0.631 | 2.88 | 0.497 | 984 | 0.989 | > 10.2 | 0.989 | > 10.2 | 0.989 | > 10200 |
| NCI-SNU-16 (stomach, suspension) | 0.475 | 5.52 | 0.763 | 6.44 | 0.89 | 14600 | 0.979 | > 10.2 | 0.991 | > 10.2 | 0.991 | > 10200 |
| NEC8 (testis, adherent) | 0.791 | 38.6 | 0.561 | 1.78 | 0.268 | 247 | 0.991 | > 10.2 | 0.951 | > 10.2 | 0.278 | 169 |
| NKM-1 (acute myeloid leukaemia, suspension) | 0.764 | 38.2 | 0.591 | 2.24 | 0.156 | 84.1 | 0.967 | > 10.2 | 0.968 | > 10.2 | 0.384 | 305 |
| NMC-G1 (glioma, adherent) | 0.695 | 25.8 | 0.638 | 3.29 | 0.326 | 290 | 0.979 | > 10.2 | 0.952 | > 10.2 | 0.874 | > 10200 |
| NOS-1 (osteosarcoma, adherent) | 0.5 | 6.38 | 0.584 | 2.25 | 0.255 | 166 | 0.89 | > 10.2 | 0.967 | > 10.2 | 0.862 | > 10200 |
| NTERA-2 cl.D1 (testis, adherent) | 0.339 | 2.29 | 0.311 | 0.371 | 0.157 | 89.5 | 0.98 | > 10.2 | 0.963 | > 10.2 | 0.953 | > 10200 |
| NU-DUL-1 (B-cell lymphoma, suspension) | 0.577 | 9.92 | 0.541 | 1.58 | 0.111 | 83.3 | 0.984 | > 10.2 | 0.863 | 6.15 | 0.805 | 4000 |
| OCI-AML5 (acute myeloid leukaemia, suspension) | 0.624 | 13.6 | 0.517 | 1.38 | 0.469 | 832 | 0.988 | > 10.2 | 0.873 | 8.39 | 0.411 | 373 |
| OCI-LY-19 (B-cell lymphoma, suspension) | 0.379 | 3.05 | 0.517 | 1.39 | 0.086 | < 62.5 | 0.988 | > 10.2 | 0.947 | > 10.2 | 0.204 | 93.8 |
| OCI-M1 (acute myeloid leukaemia, suspension) | 0.739 | 25 | 0.347 | 0.527 | 0.44 | 714 | 0.971 | > 10.2 | 0.884 | 6.64 | 0.573 | 963 |
| OCUB-M (breast, adherent) | 0.379 | 3.12 | 0.319 | 0.422 | 0.276 | 257 | 0.679 | 1.87 | 0.939 | > 10.2 | 0.896 | 9610 |
| OMC-1 (cervix, adherent) | 0.869 | 102 | 0.691 | 4.43 | 0.468 | 814 | 0.974 | > 10.2 | 0.984 | > 10.2 | 0.962 | > 10200 |
| ONS-76 (medulloblastoma, adherent) | 0.623 | 14.4 | 0.341 | 0.435 | 0.111 | < 62.5 | 0.984 | > 10.2 | 0.984 | > 10.2 | 0.721 | 2860 |
| OS-RC-2 (kidney, adherent) | 0.819 | 96.1 | 0.351 | 0.399 | 0.374 | 384 | 0.967 | > 10.2 | 0.978 | > 10.2 | 0.968 | > 10200 |
| OVCAR-4 (ovary, adherent) | 0.567 | 10.7 | 0.392 | 0.546 | 0.322 | 249 | 0.924 | > 10.2 | 0.976 | > 10.2 | 0.822 | > 10200 |

| Cell Line | AUC (Paclitaxel) | IC50 (Paclitaxel) [nM] | AUC (Bortezomib) | IC50 (Bortezomib) [nM] | AUC (Obatoclax mesylate) | IC50 (Obatoclax mesylate) [nM] | AUC (CP724714) | IC50 (CP724714) [µM] | AUC (STF-62247) | IC50 (STF-62247) [µM] | AUC (CX-5461) | IC50 (CX-5461) [nM] |
| --- | --- | --- | --- | --- | --- | --- | --- | --- | --- | --- | --- | --- |
| P30-OHK (lymphoblastic leukaemia, suspension) | 0.974 | > 102 | 0.945 | > 20 | 0.133 | 94.3 | 0.933 | > 10.2 | 0.973 | > 10.2 | 0.384 | 326 |
| P32-ISH (Burkitt lymphoma, suspension) | 0.795 | 35 | 0.431 | 0.849 | 0.013 | < 62.5 | 0.994 | > 10.2 | 0.953 | > 10.2 | 0.607 | 1170 |
| PF-382 (T-cell lymphoblastic leukaemia, suspension) | 0.676 | 18.5 | 0.516 | 1.38 | 0.175 | 124 | 0.99 | > 10.2 | 0.983 | > 10.2 | 0.451 | 478 |
| PL-21 (acute myeloid leukaemia, suspension) | 0.582 | 11.2 | 0.609 | 2.62 | 0.469 | 813 | 0.968 | > 10.2 | 0.914 | > 10.2 | 0.976 | > 10200 |
| PSN1 (pancreas, adherent) | 0.24 | 1.32 | 0.441 | 0.888 | 0.029 | < 62.5 | 0.978 | > 10.2 | 0.958 | > 10.2 | 0.596 | 1120 |
| QIMR-WIL (acute myeloid leukaemia, suspension) | 0.602 | 12.1 | 0.489 | 1.17 | 0.254 | 202 | 0.955 | > 10.2 | 0.969 | > 10.2 | 0.284 | 160 |
| RCC10RGB (kidney, adherent) | 0.964 | > 102 | 0.638 | 4.36 | 0.508 | 1070 | 0.955 | > 10.2 | 0.924 | > 10.2 | 0.926 | > 10200 |
| REH (B-cell leukaemia, suspension) | 0.968 | > 102 | 0.924 | > 20 | 0.087 | < 62.5 | 0.986 | > 10.2 | 0.942 | > 10.2 | 0.243 | 120 |
| RF-48 (stomach, adherent) | 0.616 | 13.9 | 0.631 | 3.02 | 0.331 | 319 | 0.975 | > 10.2 | 0.937 | > 10.2 | 0.652 | 1790 |
| RH-1 (rhabdomyosarcoma, adherent) | 0.778 | 34.5 | 0.941 | > 20 | 0.323 | 353 | 0.983 | > 10.2 | 0.981 | > 10.2 | 0.24 | 134 |
| ROS-50 (B-cell leukaemia, suspension) | 0.926 | > 102 | 0.739 | 7.44 | 0.631 | 2550 | 0.982 | > 10.2 | 0.934 | > 10.2 | 0.862 | > 10200 |
| RPMI-6666 (Hodgkin lymphoma, suspension) | 0.535 | 8.13 | 0.691 | 4.83 | 0.242 | 152 | 0.976 | > 10.2 | 0.789 | 5.55 | 0.62 | 1470 |
| RPMI-8402 (T-cell lymphoblastic leukaemia, suspension) | 0.643 | 14.8 | 0.591 | 2.12 | 0.098 | 66.8 | 0.982 | > 10.2 | 0.892 | 8.66 | 0.225 | 120 |
| RPMI-8866 (chronic myeloid leukaemia, suspension) | 0.789 | 41.7 | 0.684 | 3.92 | 0.246 | 198 | 0.972 | > 10.2 | 0.959 | > 10.2 | 0.494 | 616 |
| RS4-11 (leukaemia, suspension) | 0.53 | 7.65 | 0.908 | > 20 | 0.173 | 116 | 0.988 | > 10.2 | 0.983 | > 10.2 | 0.16 | 66 |
| RXF393 (kidney, adherent) | 0.606 | 14 | 0.444 | 0.828 | 0.588 | 1910 | 0.944 | > 10.2 | 0.922 | > 10.2 | 0.848 | > 10200 |
| Raji (Burkitt lymphoma, suspension) | 0.893 | > 102 | 0.662 | 3.41 | 0.619 | 2080 | 0.989 | > 10.2 | 0.978 | > 10.2 | 0.889 | > 10200 |
| Ramos-2G6-4C10 (Burkitt lymphoma, suspension) | 0.633 | 14 | 0.429 | 0.822 | 0.199 | 153 | 0.955 | > 10.2 | 0.991 | > 10.2 | 0.637 | 1440 |
| SBC-1 (small cell lung carcinoma, suspension) | 0.781 | 40.9 | 0.656 | 3.33 | 0.672 | 2960 | 0.986 | > 10.2 | 0.988 | > 10.2 | 0.757 | 3410 |
| SCC-3 (B-cell lymphoma, suspension) | 0.625 | 12.9 | 0.628 | 2.55 | 0.255 | 254 | 0.991 | > 10.2 | 0.994 | > 10.2 | 0.719 | 2180 |
| SCC-15 (head and neck, adherent) | 0.939 | > 102 | 0.963 | > 20 | 0.171 | 66.2 | 0.958 | > 10.2 | 0.976 | > 10.2 | 0.912 | > 10200 |
